# Measured values taken from the supplement of paper PMC8728848.
# Some of the results follow.
# Key:
# Experiment in all cases: glycan array binding signal (z-score within array); higher = stronger binding
# Conditions in all cases: glycan notation: IUPAC condensed, linker removed
# Fuc(a1-2)Gal = molecular target: Fuc(a1-2)Gal
# Procedure, shortened: (§1)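 Columns mapping to the same glycan were averaged after glycan names were converted to IUPAC-condensed notation. The data come from 3228 arrays in the Consortium for Functional Glycomics database, limited to those with an available protein sequence. Binding is reported as a within-array Z-score averaged across arrays of one protein sequence and across linkers.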
# Fuc(a1-2)Gal(b1-3)GalNAc = molecular target: Fuc(a1-2)Gal(b1-3)GalNAc
# Procedure, shortened: as §1
# [1] = molecular target: Fuc(a1-2)Gal(b1-3)GalNAc(a1-3)[Fuc(a1-2)]Gal(b1-4)Glc
# Procedure, shortened: as §1
# [2] = molecular target: Fuc(a1-2)Gal(b1-3)GalNAc(a1-3)[Fuc(a1-2)]Gal(b1-4)GlcNAc
# Procedure, shortened: as §1
# [3] = molecular target: Fuc(a1-2)Gal(b1-3)GalNAc(b1-3)Gal
# Procedure, shortened: as §1
# [4] = molecular target: Fuc(a1-2)Gal(b1-3)GalNAc(b1-3)Gal(a1-4)Gal(b1-4)Glc
# Procedure, shortened: as §1
# [5] = molecular target: Fuc(a1-2)Gal(b1-3)GalNAc(b1-4)[Neu5Ac(a2-3)]Gal(b1-4)Glc
# Procedure, shortened: as §1
# Fuc(a1-2)Gal(b1-3)GlcNAc = molecular target: Fuc(a1-2)Gal(b1-3)GlcNAc
# Procedure, shortened: as §1
# [6] = molecular target: Fuc(a1-2)Gal(b1-3)GlcNAc(b1-2)Man(a1-3)[Fuc(a1-2)Gal(b1-3)GlcNAc(b1-2)Man(a1-6)]Man(b1-4)GlcNAc(b1-4)GlcNAc
# Procedure, shortened: as §1
# [7] = molecular target: Fuc(a1-2)Gal(b1-3)GlcNAc(b1-2)Man(a1-3)[Fuc(a1-2)Gal(b1-3)GlcNAc(b1-2)Man(a1-6)]Man(b1-4)GlcNAc(b1-4)[Fuc(a1-6)]GlcNAc
# Procedure, shortened: as §1
# [8] = molecular target: Fuc(a1-2)Gal(b1-3)GlcNAc(b1-3)Gal(b1-4)Glc
# Procedure, shortened: as §1
# [9] = molecular target: Fuc(a1-2)Gal(b1-3)GlcNAc(b1-3)GalNAc
# Procedure, shortened: as §1
# [10] = molecular target: Fuc(a1-2)Gal(b1-3)GlcNAc(b1-3)[Fuc(a1-2)Gal(b1-3)GlcNAc(b1-6)]GalNAc
# Procedure, shortened: as §1
# [11] = molecular target: Fuc(a1-2)Gal(b1-3)GlcNAc(b1-3)[Gal(b1-4)GlcNAc(b1-6)]Gal(b1-4)Glc
# Procedure, shortened: as §1
# [12] = molecular target: Fuc(a1-2)Gal(b1-3)GlcNAc(b1-3)[Neu5Ac(a2-6)Gal(b1-4)GlcNAc(b1-6)]Gal(b1-4)Glc
# Procedure, shortened: as §1
# [13] = molecular target: Fuc(a1-2)Gal(b1-3)GlcNAc6S
# Procedure, shortened: as §1
# [14] = molecular target: Fuc(a1-2)Gal(b1-3)[Fuc(a1-4)]GlcNAc
# Procedure, shortened: as §1
# [15] = molecular target: Fuc(a1-2)Gal(b1-3)[Fuc(a1-4)]GlcNAc(b1-2)Man(a1-3)[Fuc(a1-2)Gal(b1-3)[Fuc(a1-4)]GlcNAc(b1-2)Man(a1-3)]Man(b1-4)GlcNAc(b1-4)GlcNAc
# Procedure, shortened: as §1
# [16] = molecular target: Fuc(a1-2)Gal(b1-3)[Fuc(a1-4)]GlcNAc(b1-2)Man(a1-3)[Fuc(a1-2)Gal(b1-3)[Fuc(a1-4)]GlcNAc(b1-2)Man(a1-6)]Man(b1-4)GlcNAc(b1-4)[Fuc(a1-6)]GlcNAc(b1-4)[Fuc(a1-6)]GlcNAc
# Procedure, shortened: as §1
# [17] = molecular target: Fuc(a1-2)Gal(b1-3)[Fuc(a1-4)]GlcNAc(b1-3)[Fuc(a1-3)[Gal(b1-4)]GlcNAc(b1-6)]Gal(b1-4)Glc
# Procedure, shortened: as §1
# [18] = molecular target: Fuc(a1-2)Gal(b1-3)[Fuc(a1-4)]GlcNAc(b1-3)[Gal(b1-4)GlcNAc(b1-6)]Gal(b1-4)Glc
# Procedure, shortened: as §1
# [19] = molecular target: Fuc(a1-2)Gal(b1-4)Fuc(a1-3)]GlcNAc(b1-2)Man(a1-3)[Fuc(a1-2)Gal(b1-4)[Fuc(a1-3)]GlcNAc(b1-2)Man(a1-6)]Man(b1-4)GlcNAc(b1-4)GlcNAc
# Procedure, shortened: as §1
# Fuc(a1-2)Gal(b1-4)Glc = molecular target: Fuc(a1-2)Gal(b1-4)Glc
# Procedure, shortened: as §1
# Fuc(a1-2)Gal(b1-4)Glc6S = molecular target: Fuc(a1-2)Gal(b1-4)Glc6S
# Procedure, shortened: as §1
# Fuc(a1-2)Gal(b1-4)GlcNAc = molecular target: Fuc(a1-2)Gal(b1-4)GlcNAc
# Procedure, shortened: as §1
# [20] = molecular target: Fuc(a1-2)Gal(b1-4)GlcNAc(b1-2)Man
# Procedure, shortened: as §1
# [21] = molecular target: Fuc(a1-2)Gal(b1-4)GlcNAc(b1-2)Man(a1-3)[Fuc(a1-2)Gal(b1-4)GlcNAc(b1-2)Man(a1-6)]Man(b1-4)GlcNAc(b1-4)GlcNAc
# Procedure, shortened: as §1
# [22] = molecular target: Fuc(a1-2)Gal(b1-4)GlcNAc(b1-2)Man(a1-3)[Fuc(a1-2)Gal(b1-4)GlcNAc(b1-2)Man(a1-6)]Man(b1-4)GlcNAc(b1-4)[Fuc(a1-6)]GlcNAc
# Procedure, shortened: as §1
# [23] = molecular target: Fuc(a1-2)Gal(b1-4)GlcNAc(b1-2)[Fuc(a1-2)Gal(b1-4)GlcNAc(b1-4)]Man(a1-3)[Fuc(a1-2)Gal(b1-4)GlcNAc(b1-2)Man(a1-6)]Man(b1-4)GlcNAc(b1-4)GlcNAc
# Procedure, shortened: as §1
# [24] = molecular target: Fuc(a1-2)Gal(b1-4)GlcNAc(b1-3)Gal(b1-4)GlcNAc
# Procedure, shortened: as §1
binder,measurement,setting,value
DrGal3 (Danio rerio) (protein) MDLSDALDAPPQQNNQQAGGPVWPGQPANPVWPGQPANPTWPGQPNQPAWPGQPNQQWPGQPGQPTAPGWPGPAPQTGPYGAPGQAPQVLTVPLDFPLQNGAYNKMLITINGEVKPNAKQFTVNLRRGNDIAFHINPRFSEGGKPVIVRNSMIGNNWGREERELPSFPFVPGKPFEMKILITDTEYKVAVNKSHLLEFKHRVFELNQITGLSIYNDVTLSTVNVETLQ,glycan array binding signal (z-score),Fuc(a1-2)Gal,-0.241
same,glycan array binding signal (z-score),Fuc(a1-2)Gal(b1-3)GalNAc,-0.26
same,glycan array binding signal (z-score),[1],-0.254
same,glycan array binding signal (z-score),[2],-0.249
same,glycan array binding signal (z-score),[3],-0.246
same,glycan array binding signal (z-score),[4],-0.2
same,glycan array binding signal (z-score),[5],-0.203
same,glycan array binding signal (z-score),Fuc(a1-2)Gal(b1-3)GlcNAc,-0.222
same,glycan array binding signal (z-score),[6],-0.23
same,glycan array binding signal (z-score),[7],-0.168
same,glycan array binding signal (z-score),[8],-0.209
same,glycan array binding signal (z-score),[9],-0.232
same,glycan array binding signal (z-score),[10],-0.164
same,glycan array binding signal (z-score),[11],-0.194
same,glycan array binding signal (z-score),[12],-0.236
same,glycan array binding signal (z-score),[13],-0.202
same,glycan array binding signal (z-score),[14],-0.22
same,glycan array binding signal (z-score),[15],-0.187
same,glycan array binding signal (z-score),[16],-0.217
same,glycan array binding signal (z-score),[17],-0.206
same,glycan array binding signal (z-score),[18],-0.269
same,glycan array binding signal (z-score),[19],-0.125
same,glycan array binding signal (z-score),Fuc(a1-2)Gal(b1-4)Glc,-0.281
same,glycan array binding signal (z-score),Fuc(a1-2)Gal(b1-4)Glc6S,-0.221
same,glycan array binding signal (z-score),Fuc(a1-2)Gal(b1-4)GlcNAc,-0.243
same,glycan array binding signal (z-score),[20],-0.187
same,glycan array binding signal (z-score),[21],-0.218
same,glycan array binding signal (z-score),[22],-0.209
same,glycan array binding signal (z-score),[23],-0.225
same,glycan array binding signal (z-score),[24],-0.056
